Measurements from patent publication US20100099731A1, “Use of Endothelial Interrupters in the Treatment of Neurodegenerative Diseases” (Texas Tech University System, priority 2008, published 2010).

Test system: cerebral cortical cultures or differentiated PCl2 cells
Assay: Thrombin-evoked apoptosis and necrosis in neuronal cultures
[1] = apoptosis and necrosis examined in the same well

Question: Which results are given for thrombin?
Answer: apoptosis [1]: significant apoptotic effect; necrosis [1]: little effect on necrosis; nucleosome accumulation (primary cortical cell cultures and differentiated PCl2 cells, compared with the other mediators tested): highest level of nucleosome accumulation
